# Among all 94,000 compounds or so, about 4,000 (4.3%) were called active. The shares of active, inactive and inconclusive entries below differ from those in the screen. Calls come from the whole dose curve; as a rule, active = well fitted inhibition curve with a large enough effect; inconclusive = small, poorly fitted or top-dose-only effect; inactive = no such curve, though single readings can be large or run the other way. A potency beside an inconclusive call is a rough fit, not a confirmed value.
# Experiment: Cytotoxic Profiling in NIH 3T3 Cell Line of Diverse Libraries Using Quantitative High-Throughput Screening; note: nearly all actives have a fitted effect of over 55% in size
# Conditions: NIH 3T3 viability, CellTiter-Glo ATP luminescence, 48-72 h; series mostly up to 96.7 µM
# Procedure, shortened: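 First NIH 3T3 cells are plated at 400 cells/well; next compound is pinned in; then plates incubate 48 or 72 hr at 37 °C; finally CellTiter-Glo is added and luminescence read after 10 min.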
# Potency is the fitted concentration of half-maximal effect; tags give direction and shape of the fitted curve.
row,SMILES,Potency
1,CC(C)(Oc1nn(Cc2cccc(Cl)c2)c2ccccc12)C(=O)N1CC(O)C1,"inconclusive: 89.1 µM [inhibitor, partial curve]"
2,CC(C)c1nc(N(C)Cc2cc(-c3cccnc3)no2)c2cnn(C)c2n1,"inconclusive: 39.8 µM [inhibitor, full curve, poor fit]"
3,CC(C)NC(=O)c1cnc2n[nH]c(-c3ccccc3)c2n1,inactive
4,Cc1nn(-c2ccccc2)c2c1C(C1CC1)N(C1CCN(C(=O)NC(C)C)C1)C2=O (stereo unspecified),inactive
5,CCOc1ccc(-c2nc(C3CC(=O)N(Cc4ccccc4OC)C3)no2)cc1 (stereo unspecified),active: 22.4 µM
6,O=c1cc(N2CCOCC2)oc2c(Nc3ccccc3)nccc12,active: 39.8 µM
7,O=S(=O)(c1cccc2nsnc12)N1CCCC(c2nc(CCOCC3CC3)no2)C1 (stereo unspecified),inactive
8,O=C(Cc1ccc(Cl)cc1)N1CCC(c2n[nH]c(=O)n2Cc2ccc(F)cc2)CC1,"inconclusive: 10 µM [inhibitor, full curve, poor fit]"
9,CC(C)(C)c1ccc(-c2cc(C[C@H]3CNCC[C@H]3CC(=O)NC3CCCCC3)no2)cc1,active: 20 µM
10,CN1C[C@H](O)C[C@H]1c1nnc2n1CCN(C(=O)c1nccc3ccccc13)CC2,inactive
11,COc1ccc(OC)c(CN2CCOc3ccc(C(=O)NCc4ccccc4F)cc3C2)c1,"inconclusive: 50.1 µM [inhibitor, partial curve, poor fit]"
12,O=C(Nc1cccc(C(F)(F)F)c1)c1nc2c(o1)CCN(Cc1ccccc1)CC2,"inconclusive: 56.2 µM [inhibitor, partial curve, poor fit]"
13,CCOc1cc(=O)n2c(c1C(=O)Nc1ccc(Cl)c(F)c1)CCCC2,"inconclusive: 79.4 µM [inhibitor, partial curve, poor fit]"
14,CSCC(=O)N1CCC2(CCN(Cc3cccc(F)c3)CC2)C(CO)C1 (stereo unspecified),inactive
15,O=S(=O)(c1cccc(F)c1)N1CC(c2nnc(-c3ccncc3)o2)C2(CCOCC2)C1 (stereo unspecified),inactive
16,CCCc1noc(-c2ccn3c(CNC(=O)c4cc(Cl)ccc4F)nnc3c2)n1,inactive
17,C#CCNC(=O)c1nc(-c2c(C)cccc2C)c2ccccn12,"inconclusive: 56.2 µM [inhibitor, partial curve, poor fit]"
18,O=C1CC(c2ccccc2)N(Cc2ccncc2)CCCN(C(=O)CCCc2ccccc2)CCN1 (stereo unspecified),"inconclusive: 44.7 µM [inhibitor, partial curve, poor fit]"
19,COc1ccccc1-c1ccc2ncc(Nc3cccnc3OC)n2n1,"inconclusive: 56.2 µM [inhibitor, partial curve, poor fit]"
20,CN(Cc1ccccc1)[C@H]1C[C@H]2CCOC[C@@]2(c2ccccc2)C1,"inconclusive: 50.1 µM [inhibitor, partial curve, poor fit]"
21,CC(C)N1C[C@@H]2OCC(=O)N(CC3CCCCC3)[C@@H]2C1,"inconclusive: 112 µM [inhibitor, partial curve, poor fit]"
22,O=C(C1CCCO1)N1CCc2c(n(Cc3cccnc3)n(CCc3ccccc3)c2=O)C1 (stereo unspecified),"inconclusive: 112 µM [inhibitor, single point]"

row,SMILES,Potency
1,CCCn1cc2c3c(cccc31)CN(C(=O)COc1ccc(F)cc1)CC2,"inconclusive: 31.6 µM [inhibitor, partial curve]"
2,COc1ncc(-c2cc3c(nc2OC)nc(CC2CC2)n3C)cn1,"inconclusive: 112 µM [inhibitor, partial curve, poor fit]"
3,Cc1cc(N2CCOC(C(F)(F)F)C2)nc(-c2ccccc2)n1 (stereo unspecified),inactive
4,COCC(=O)N1CCC2(CC1)C(=O)NCN2Cc1ccc(Cl)cc1,inactive
5,COc1cccc([S+](=O)([O-])N2CCN(C(=O)c3nc4cccnc4n(CC(C)C)c3=O)CC2)c1,inactive
6,Cc1ccc(OCC(=O)N2CCCN(S(C)(=O)=O)c3ccccc32)cc1,active: 22.4 µM
7,O=C(c1ccc2ccccc2n1)N1CCC(Cc2ccc(CN3CCOCC3)cc2)CC1,"inconclusive: 50.1 µM [inhibitor, partial curve, poor fit]"
8,COCc1ccc2c(c1)c(OC(C)(C)C(=O)NCc1ccncc1)nn2CCC(C)C,"inconclusive: 14.1 µM [inhibitor, full curve, poor fit]"
9,Cc1cnc(C2CCC2)n1CCC1CCN(C(=O)c2ccc3ccccc3n2)CC1,"inconclusive: 70.8 µM [inhibitor, single point]"
10,O=C(NC1CCCN(c2cc(-c3ccccc3)[nH]n2)C1)c1ccc2[nH]ccc2c1 (stereo unspecified),"inconclusive: 44.7 µM [inhibitor, partial curve, poor fit]"
11,O=C1NCCCCCCN(C(=O)Nc2ccccc2F)[C@H]2CCCC[C@@H]12,"inconclusive: 70.8 µM [inhibitor, single point]"
12,CC(=O)c1cc(C(=O)N2CCC(n3nccc3NC(=O)CC(C)C)CC2)cs1,inactive
13,COc1cccc(C(=O)N2CCCC2C(=O)N2CCC(N3CCCC3=O)CC2)c1 (stereo unspecified),inactive
14,Cn1cc(CC(=O)N2CCCc3ncc(C(=O)NCCN4CCCC4)cc32)c2ccccc21,"inconclusive: 50.1 µM [inhibitor, partial curve, poor fit]"
15,CN1CCC(Oc2ccc(C(=O)NCCc3ccncc3)cn2)CC1,inactive
16,CCN(CC)Cc1cnc2c(C(=O)NCc3nc(C)cs3)cnn2c1,inactive
17,Nc1ncccc1CN1CCC2(CC1)CC(c1ccccc1)C(=O)N(C1CC1)C2 (stereo unspecified),inactive
18,O=C1CC(c2noc(Cc3ccc(F)cc3)n2)CN1c1ccc(F)c(Cl)c1 (stereo unspecified),active: 17.8 µM
19,CCOC(=O)[C@@H]1[C@@H](OC(N)=O)C(=O)N(Cc2ccccc2)C12CCN(C(=O)C(C)C)CC2,"inconclusive: 70.8 µM [inhibitor, single point]"
20,O=C(NC1CC1)C1c2ccccc2C(=O)N(C2CCCCC2)C12CCCCC2 (stereo unspecified),"inconclusive: 44.7 µM [inhibitor, partial curve, poor fit]"
21,O=C(c1ccc(Cl)cc1)N1CCC(Cc2nc(-c3cnccn3)no2)CC1,active: 25.1 µM
22,O=C(Cn1ccn2nc(-c3ccccc3)c(CO)c2c1=O)NCCc1ccc(Cl)cc1,"inconclusive: 70.8 µM [inhibitor, single point]"

row,SMILES,Potency
1,Cc1n[nH]c(C)c1CCC(=O)N1CCC(c2nn(C)c(=O)n2C2CCCC2)CC1,"inconclusive: 70.8 µM [inhibitor, single point]"
2,Fc1ccc(Nc2ncc(-c3cccnc3)c3c2OCC3)cc1,"inconclusive: 14.1 µM [inhibitor, full curve, poor fit]"
3,COc1cccc(C(=O)N2CCC(C(=O)N3CCC(N4Cc5ccccc5C4=O)CC3)CC2)c1,inactive
4,O=C(c1ccc(-c2ccco2)cc1)N1CCOC(c2ccccc2)C1 (stereo unspecified),"inconclusive: 35.5 µM [inhibitor, partial curve, poor fit]"
5,Cc1noc(C)c1COc1ccc(C(=O)N[C@@H]2CN(C(=O)Nc3ccc(F)cc3)CCC[C@H]2O)cc1,"inconclusive: 56.2 µM [inhibitor, partial curve, poor fit]"
6,COc1cccc(-c2cc(C(=O)Nc3ccccc3F)c3cnn(C)c3n2)c1,"inconclusive: 44.7 µM [inhibitor, partial curve, poor fit]"
7,CN(C)C(=O)c1ccc2c(c1)NC(C)(CCCCc1ccccc1)CO2 (stereo unspecified),"inconclusive: 79.4 µM [inhibitor, partial curve, poor fit]"
8,CN(CC1CCN(CCc2ccc(Cl)cc2)CC1)C(=O)c1ccccc1C#N,"inconclusive: 79.4 µM [inhibitor, partial curve, poor fit]"
9,COCCN1Cc2[nH]nc(-c3cccc(C(F)(F)F)c3)c2CC1=O,"inconclusive: 89.1 µM [inhibitor, partial curve, poor fit]"
10,CN1CCCCCCN(C(=O)C2CCC2)[C@H]2CCC[C@H]2C1=O,inactive
11,COCC1CN(C2CCC2)CC12CCN(C(=O)CC1CCCCC1)CC2 (stereo unspecified),"inconclusive: 79.4 µM [inhibitor, partial curve, poor fit]"
12,CC(=O)NC1(C)CN(Cc2ccc(-c3cccc(C(F)(F)F)c3)nc2)C1,"inconclusive: 89.1 µM [inhibitor, partial curve]"
13,COc1ccc(-c2noc([C@@H]3CCCN3C(=O)CCCc3ccccc3)n2)cc1,"inconclusive: 50.1 µM [inhibitor, partial curve, poor fit]"
14,COc1ccc(-c2ccc(C(=O)NCc3cccc(F)c3)cc2)nn1,inactive
15,COC(=O)C1=C(C)N=C2SC=C(CC(=O)N3CCC(C)CC3)N2C1c1ccccc1Cl (stereo unspecified),"inconclusive: 50.1 µM [inhibitor, partial curve, poor fit]"
16,CCN1CCC2(Cc3ccccc3CN(C(=O)c3c(C)noc3C)C2)C1 (stereo unspecified),inactive
17,O=C1Nc2ccccc2CNC12CCN(CC1CCCC1)CC2,inactive
18,Cc1ccccc1CC(=O)N1CCC2(CC1)NC(=O)N(c1ccccc1)N2,"inconclusive: 25.1 µM [inhibitor, partial curve]"
19,O=C1NCCCCCCN(Cc2ccncc2)[C@@H]2CN(C(=O)Nc3ccccc3F)CC[C@H]12,"inconclusive: 11.2 µM [inhibitor, partial curve, poor fit]"
20,O=C(c1cccnc1)N1CC(Oc2ccccc2-c2nc(-c3cnccn3)no2)C1,inactive
21,COCC(=O)N1CCC(N2C(=O)c3c(c(C)nn3-c3ccccc3)C2C2CC2)C1 (stereo unspecified),"inconclusive: 70.8 µM [inhibitor, partial curve, poor fit]"
22,COC(=O)c1ccccc1S(=O)(=O)N1CCC(c2cc(-c3cccc(C)c3)n[nH]2)CC1,active: 39.8 µM

# From PubChem BioAssay AID1345082 (National Center for Advancing Translational Sciences (NCATS), 2018)
